Source: PubChem BioAssay AID1645882 (National Center for Advancing Translational Sciences (NCATS), 2021)
Out of some 16,000 compounds screened, about 120 (0.75%) were called active. Inconclusive results (about 4%) are left out. Calls follow the shape of the dose curve; as a rule, active = well fitted inhibition curve with a large enough effect; inconclusive = small, poorly fitted or top-dose-only effect; inactive = no such curve, though single readings can be large or run the other way. Some of the results follow. Where a SMILES comes first, the peptide text is derived from it. Bridges are numbered along the chain shown (N, C = ends). [ ]: non-standard residue; d: D form. The star is where a group is joined. X2 = CC[C@@H](C)[C@@H](N)C1=N[C@H](C(=O)*)CS1; d(aIle) = CC[C@H](C)[C@@H](N)C(=O)O; dOrn = NCCC[C@@H](N)C(=O)O; X4 = CC[C@H](C)CCCCC(=O)*; Dab = NCC[C@H](N)C(=O)O

Biological target: Rap guanine nucleotide exchange factor 3 (Homo sapiens) (UniProt O95398)
Assay: Validation qHTS for antagonist of cAMP-regulated guanine nucleotide exchange factor 3 (EPAC1);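 also: plate controls were DMSO for no effect and ATA control for full effect; nearly all actives have a fitted effect of over 75% in size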
Settings: EPAC1 Rap1B-BODIPY-GDP exchange, fluorescence; series mostly up to 150 µM; activity change, negative = inhibition: at the top concentration
In short: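 EPAC1 (100 nM) mixed with 250 nM RAP1B-BODIPY-GDP and 50 uM GDP; compounds in concentration series, 5 min at room temperature. Fluorescence (ex 480/em 540 nm) read every 5 min for 30 min; normalized to ATA control and DMSO.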

Chain of UniProt O95398 (O95398 whole entry, looked up): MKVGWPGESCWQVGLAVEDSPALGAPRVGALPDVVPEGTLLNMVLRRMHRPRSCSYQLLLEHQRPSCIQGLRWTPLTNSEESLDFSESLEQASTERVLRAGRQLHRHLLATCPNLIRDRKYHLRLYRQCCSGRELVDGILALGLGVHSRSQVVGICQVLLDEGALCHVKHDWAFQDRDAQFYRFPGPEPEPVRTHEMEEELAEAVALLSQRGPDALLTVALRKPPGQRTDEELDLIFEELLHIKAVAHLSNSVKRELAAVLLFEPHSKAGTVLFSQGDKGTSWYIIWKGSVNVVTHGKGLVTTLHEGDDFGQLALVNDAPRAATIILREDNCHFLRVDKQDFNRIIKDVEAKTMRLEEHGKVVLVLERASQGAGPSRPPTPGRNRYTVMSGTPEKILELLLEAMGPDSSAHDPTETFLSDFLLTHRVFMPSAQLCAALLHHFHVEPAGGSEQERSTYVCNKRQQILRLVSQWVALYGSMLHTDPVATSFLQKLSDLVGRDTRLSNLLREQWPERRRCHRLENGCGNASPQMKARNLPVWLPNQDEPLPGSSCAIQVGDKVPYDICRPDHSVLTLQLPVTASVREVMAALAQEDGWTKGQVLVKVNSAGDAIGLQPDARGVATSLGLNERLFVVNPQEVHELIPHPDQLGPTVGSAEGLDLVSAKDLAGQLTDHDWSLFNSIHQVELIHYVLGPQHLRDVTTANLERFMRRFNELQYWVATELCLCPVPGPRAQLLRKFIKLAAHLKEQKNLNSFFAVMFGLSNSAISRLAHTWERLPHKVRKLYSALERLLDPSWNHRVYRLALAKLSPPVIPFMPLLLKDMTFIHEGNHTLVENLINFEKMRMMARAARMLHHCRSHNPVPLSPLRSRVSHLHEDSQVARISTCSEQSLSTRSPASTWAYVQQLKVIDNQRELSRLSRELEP

Activity change, negative = inhibition, inactive:
CC(C)Oc1ccc2c(=O)c3cc(C(=O)O)ccc3oc2c1 3.91%, CCOC(=O)/C=C/c1ccc2c(c1)S(=O)(=O)N(Cc1ccc(OC)cc1)[C@H]2CC(=O)OCC -13.9%, c1ccc(Nc2ncncc2-c2ccoc2)cc1 22.2%, COc1cccc(-c2ccc3ncnc(NCc4cnc(C)cn4)c3c2)c1 0.674%, Fc1ccc(Nc2ncnc3ccc(-c4ccoc4)cc23)cc1 0.533%, Cc1nc2n(c(=O)c1CCN1CCC(c3noc4cc(F)ccc34)CC1)CCCC2 6.32%, CNCCC(Oc1ccc(C(F)(F)F)cc1)c1ccccc1 (stereo unspecified), Cc1noc(C)c1-c1nc(NCc2ccccc2)c2ccccc2n1 16.1%, C[C@@H](CN1CC(=O)NC(=O)C1)N1CC(=O)NC(=O)C1 0.914%, O=c1c(-c2ccc(F)cc2)nc2cnc(N3CCOCC3)nc2n1Cc1cccs1 -2.92%, CC(=O)Nc1ccc(CC(=O)O)cc1 6.37%, FC(F)(F)c1ccccc1-c1nc(Nc2ccncc2)c2ccccc2n1 27.1%, O=c1c(-c2cccc(Cl)c2)nc2cncnc2n1C1CC1 18.8%, COCC(=O)N1CCC2(CC1)CN(C(=O)Nc1cccc(F)c1)C2 6.95%, O=C(O)Cc1sc(-c2ccccc2)nc1-c1ccc(Cl)cc1, CC(=O)OCC(=O)[C@@]12N=C(C)O[C@@H]1C[C@H]1[C@@H]3CCC4=CC(=O)C=C[C@]4(C)[C@H]3[C@@H](O)C[C@@]12C 12.7%, C#CCN1C(C)=C(C(=O)OC)C(c2cccc([N+](=O)[O-])c2)C(C(=O)OCC)=C1C (stereo unspecified) -2.34% [at 75.8 µM], COc1ccc(C(=O)/C=C/c2ccccc2)cc1 -2.07%, OCc1cc(C(O)CNCCCCCCOCCCCc2ccccc2)ccc1O (stereo unspecified), COc1ccc(-c2nc3cnc(Oc4cccc(Cl)c4)nc3n(CCC#N)c2=O)cc1 9.1%, C[C@@](N)(C(=O)O)c1cccc(CC(=O)O)c1 -10.6%, CN(C(=O)c1cnn(-c2ncc3c(n2)-c2ccccc2CCC3)c1C1CC1)C1CCOC1 (stereo unspecified) 16.2%, O=C(C[N+]1(CCc2ccccc2)CCOCC1)c1cccc([N+](=O)[O-])c1 19.1%, Cc1csc(-c2nc3ccccc3n2C)n1 -17.2%, COc1ccc(CN2CCCC(c3nc(-c4ccncc4)ncc3-c3ccccc3C)C2)c(OC)c1 (stereo unspecified) -6.69%, FC(F)(F)c1ccccc1-c1cc(NCCN2CCOCC2)ncn1 -0.311%, CC[C@H](C)CCCCC(=O)N[C@@H](CCN)C(=O)N[C@H](C(=O)N[C@@H](CCN)C(=O)N[C@H]1CCNC(=O)[C@H]([C@@H](C)O)NC(=O)[C@H](CCN)NC(=O)[C@H](CCN)NC(=O)[C@H](CC(C)C)NC(=O)[C@@H](CC(C)C)NC(=O)[C@H](CCN)NC1=O)[C@@H](C)O (X4-[Dab]T[Dab][Dab][Dab][dL]L[Dab][Dab]T; lactam 4-C) 16%, COc1cc(-c2cc(C)c3c(OC)ccc(OC)c3n2)cc2c1OCCN(C(=O)Cn1nc(C)cc1C)C2 21.2%, C[C@]12C=CC(=O)C=C1[C@@H](F)C[C@@H]1[C@@H]2[C@@H](O)C[C@@]2(C)[C@H]1CC[C@]2(O)C(=O)CO, CC1CC2C3CCC4=CC(=O)C=C[C@@]4(C)[C@]3(F)C(O)C[C@]2(C)[C@]1(O)C(=O)CO (stereo partly specified), COCC(=O)N1CCC[C@@]2(CCN(Cc3cc(C(F)(F)F)cc(C(F)(F)F)c3)C2)C1 -2.2%, Cc1c(N)nc([C@H](CC(N)=O)NC[C@H](N)C(N)=O)nc1C(=O)N[C@H](C(=O)N[C@H](C)[C@@H](O)[C@H](C)C(=O)N[C@H](C(=O)NCCc1nc(-c2nc(C(=O)NCCCCN=C(N)N)cs2)cs1)[C@@H](C)O)[C@@H](O[C@@H]1O[C@@H](CO)[C@@H](O)[C@H](O)[C@@H]1O[C@H]1O[C@H](CO)[C@@H](O)[C@H](OC(N)=O)[C@@H]1O)c1cnc[nH]1, COc1ccc(C(=O)c2ccc(C)cc2)c(O)c1 -4.44%, CC[C@@H](C)[C@@H](N)C1=N[C@H](C(=O)N[C@@H](CC(C)C)C(=O)N[C@@H](CCC(=O)O)C(=O)N[C@@H](C(=O)N[C@@H]2CCCCNC(=O)[C@@H](CC(N)=O)NC(=O)[C@@H](CC(=O)O)NC(=O)[C@@H](Cc3cnc[nH]3)NC(=O)[C@@H](Cc3ccccc3)NC(=O)[C@@H]([C@H](C)CC)NC(=O)[C@@H](CCCN)NC2=O)[C@@H](C)CC)CS1 (X2-LE[d(aIle)][dK][dOrn][dI][dF][dH][dD][dN]; lactam 4-C), COc1cccc(CN2C(=O)NC(C)(C3CCN(Cc4cc(F)cc(F)c4)CC3)C2=O)c1OC (stereo unspecified) -9.51%, NC(=O)NC(=O)Cc1ccccc1 22.4%, Cc1c(C(=O)NCC2COCCO2)cnn1-c1nccc(-c2cccs2)n1 (stereo unspecified) 15.2%, COCC1CCCN(Cc2ccc3c(c2)CN(C(=O)c2ccc(-c4ccc(C)o4)cc2)CCO3)C1 (stereo unspecified) 6.91%, CCCCN1C[C@H](Cc2ccccc2)[C@@H](CC(=O)Nc2ccccc2)C1=O -11.2%, CN1CCCC2(CCN(S(=O)(=O)c3ccccc3)CC2)C1 21.5%, CCCCN1CC[C@H]2C=CC[C@@H](C(=O)Nc3ccc(OC)cc3)[C@H]2C1=O 8.28%, COCC(=O)N1CCC2(CCCN(c3ccncc3)C2)CC1 5.12%, N#Cc1cc2[nH]c(=O)c(=O)[nH]c2cc1[N+](=O)[O-] 3.13%, CO[C@H]1[C@H](NC(=O)c2cccs2)c2ccccc2C12CCN(Cc1cccn1-c1cccnc1)CC2 10.1%, O=C(c1cccnc1)C1CCCN(Cc2ccc3c(c2)CN(C(=O)c2cccc(Cl)c2)CCO3)C1 (stereo unspecified) 15.7%, CC1CS(=O)(=O)CCN1/N=C/c1ccc([N+](=O)[O-])o1 (stereo unspecified) 7.32% [at 75.8 µM], CC1CC[C@@]2(C(=O)O)CC[C@]3(C)C(=CCC4[C@@]5(C)CCC(O)C(C)(C)C5CC[C@@]43C)C2C1C (stereo partly specified) 4.6%, CC(=O)NC(CC(=O)O)C(=O)O (stereo unspecified) 21.9%, C[C@@H](CN=[N+]=[N-])CN1CC[C@H](C(C)(C)C)CCC1=O -0.773%, CC1(C)OC2CC3C4CCC5=CC(=O)CCC5(C)C4(F)C(O)CC3(C)[C@]2(C(=O)CCl)O1 (stereo partly specified) 14.6%, OC[C@H]1O[C@@H](n2cnc3cncnc32)[C@H](O)[C@@H]1O
